Results on 83 variants are retold here after the RNAGym collection of RNA variant scans (doi:10.1073/pnas.2313332121).

Variants at the background level are over-represented here.

B1: TPR 5TU (parent)
chain: GGAUCUUCUCGAUCUAACAAAAAAGACAAAUCUGCCACAAAGCUUGAGAGCAUCUUCGGAUGCAGAGGCGGCAGCCUUCGGUGGCGCGAUAGCGCCAACGUUCUCAACUAUGACACGCAAAACGCGUGCUCCGUUGAAUGGAGUUUAUCAUG

Variants of B1 are the subject of the series. Briefly: polymerase ribozyme fitness, log enrichment relative to wild type (log ratio); higher = more active; in vitro selection for triplet polymerase activity. A digest of the protocol:
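For each subunit of a heterodimeric triplet polymerase ribozyme, a mutant library was built by PCR and transcribed, then taken through a single in vitro selection round in triplicate. Selection involved annealing to a biotinylated primer, the partner subunit and triplets, incubation frozen at −7 °C, gel excision of extended constructs, capture on streptavidin beads and RT-PCR. Genotypes were retained after Illumina sequencing of inputs and outputs only with ≥10 input reads and ≥1 read in each output. Fitness is defined as the logarithm of a genotype's enrichment relative to wild-type enrichment, using inverse-variance-weighted averages across replicates, with the logarithm taken to base 2.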
A28C C76U A89G G92U C108G U134C G140A: the “polymerase ribozyme fitness (log ratio)” value is no more than -4.2.
For A28U C96U U134A, the “polymerase ribozyme fitness (log ratio)” value is no more than -4.2.
The result for A28C G48U C69G C85U A89U U101A C116A U151C reads no more than -4.2.
Then A28U C36G C93A C131G, with no more than -4.2; and A28U C116U, with no more than -4.2; and A28U G48C C54U G74U U77A G86U A98U C103G, with no more than -4.2.
Turning to A28U C93U, the “polymerase ribozyme fitness (log ratio)” value is no more than -4.2.
Then A28U A29U A41U A52C C93A, with no more than -4.2; and A28U G59U G74U C85G A113U C114A U127A, with no more than -4.2.
Then A28U C125G G141C, with no more than -4.2.
As to A29C A37G A47G A52C G140U, the “polymerase ribozyme fitness (log ratio)” value is no more than -4.2.
On to A28G G84U A98C, for which the “polymerase ribozyme fitness (log ratio)” value is no more than -4.2.
Then A28G C103U A115U U146C, with no more than -4.2.
For A28U C35U G94C A122C, the “polymerase ribozyme fitness (log ratio)” value is no more than -4.2.
On to A28U A73G U77C C85U, for which the “polymerase ribozyme fitness (log ratio)” value is no more than -4.2.
The result for A28G G42C C43G U56C C85G G92A G124U A150U reads no more than -4.2; that for A28G G42C G50A C54G A73U G126C, no more than -4.2.
As to A28U G50C A73U G74A C85U C108A G140U U144C, the “polymerase ribozyme fitness (log ratio)” value is no more than -4.2.
For A28G G92U C108G, the “polymerase ribozyme fitness (log ratio)” value is no more than -4.2.
Consider A28G C57A U61A C76A G88A C93U U102G, for which the “polymerase ribozyme fitness (log ratio)” value is no more than -4.2.
In the case of A28G U33C G42A A52C G83C, the “polymerase ribozyme fitness (log ratio)” value is no more than -4.2.
Then A28U U55G G81U C95A, with no more than -4.2; and A28U U148A, with no more than -4.2; and A28C A41G G42A U44A C76A A121C, with no more than -4.2.
In the case of A28U G86C C87U C99A C125A U135G, the “polymerase ribozyme fitness (log ratio)” value was no more than -4.2.
Then A29C C76A G88C C95G, with no more than -4.2; and A28U C108U, with no more than -4.2; and A28U U55G A110C A121U C149A, with no more than -4.2.
Consider A29C A41G A122G G143A, for which the “polymerase ribozyme fitness (log ratio)” value is no more than -4.2.
Then A28C A52G U56A G62C C85U U148A, with no more than -4.2; and A28C U45A G88A C96A G100A G143A, with no more than -4.2; and A28U G83A C116U U145A, with no more than -4.2.
For A28C C32G C63U, the “polymerase ribozyme fitness (log ratio)” value was no more than -4.2.
The result for A28U C85A reads -4.11; that for A28G U45A G48C C87A A107G G136A, no more than -4.2; that for A28C C87A, no more than -4.2.
As for A29C A41G U53A A150C, the “polymerase ribozyme fitness (log ratio)” value is no more than -4.2.
Then A28U G68U C76U C96A, with no more than -4.2; and A29C C57U U61A G92U U102G, with no more than -4.2; and A28U A41G C76A C93G, with no more than -4.2.
In the case of A28U C57G C76A A107U C114G A120C, the “polymerase ribozyme fitness (log ratio)” value is no more than -4.2.
On to A28U G34U C96A A142C G143A, for which the “polymerase ribozyme fitness (log ratio)” value was no more than -4.2.
Regarding A28U C69A G83A C105G A115U G143A, the “polymerase ribozyme fitness (log ratio)” value is no more than -4.2.
Consider A28U U44A U61A G86U A122U U135G U139G, for which the “polymerase ribozyme fitness (log ratio)” value was no more than -4.2.
As to A29C A41C C85U A113G, the “polymerase ribozyme fitness (log ratio)” value was no more than -4.2.
Then A28U U53A C57U G92U A122G, with no more than -4.2; and A28U G65C G74U U101C A147C, with no more than -4.2; and A28G C38G U55G G58U, with no more than -4.2.
As for A28U G42A U56A C79G C93A C125G A147G, the “polymerase ribozyme fitness (log ratio)” value is no more than -4.2.
For the variant A28G G94C G100U U134G, the “polymerase ribozyme fitness (log ratio)” value was no more than -4.2.
As for A28U C79G, the “polymerase ribozyme fitness (log ratio)” value is no more than -4.2.
As to A28G U33A A40G A120U, the “polymerase ribozyme fitness (log ratio)” value is no more than -4.2.
The result for A28U C93G A97G C105A A107G G117A U148A reads no more than -4.2; that for A28U C35U U144C, no more than -4.2; that for A29C A47U A49U C99G G126A, no more than -4.2.
A29C A49C G74U C95G C118U A150G G152U: the “polymerase ribozyme fitness (log ratio)” value is no more than -4.2.
As to A28C C51U C76U G140A, the “polymerase ribozyme fitness (log ratio)” value is no more than -4.2.
Then A29C A40G C54G C76A C85U A107G C123U U145A, with no more than -4.2.
As for A29C G46A U61G G92C, the “polymerase ribozyme fitness (log ratio)” value is no more than -4.2.
Consider A28U C32G G83C C93G A98U A115G, for which the “polymerase ribozyme fitness (log ratio)” value is no more than -4.2.
In the case of A29C C57G G128C, the “polymerase ribozyme fitness (log ratio)” value is no more than -4.2.
The result for A28G A39U A60G C125U reads no more than -4.2; that for A28G G88C, no more than -4.2; that for A28U A29G A49U G88C, no more than -4.2.
As to A28U A47G A49C U130G U146G, the “polymerase ribozyme fitness (log ratio)” value is no more than -4.2.
Take A28U C87G A113U G126U U144C: the “polymerase ribozyme fitness (log ratio)” value is no more than -4.2.
Regarding A29C C43U G71U U101A G126A U139C, the “polymerase ribozyme fitness (log ratio)” value was no more than -4.2.
For the variant A28C A52G C76G A91U U146G, the “polymerase ribozyme fitness (log ratio)” value is no more than -4.2.
With A29C A37G G65C C75G U77A A97G C118U C123U, the “polymerase ribozyme fitness (log ratio)” value was no more than -4.2.
The result for A28U C32U G42A A107G C123A reads no more than -4.2; that for A28C U82C C99G, no more than -4.2.
Turning to A28U C132G, the “polymerase ribozyme fitness (log ratio)” value is no more than -4.2.
In the case of A28C U53A C57G A97U G117U, the “polymerase ribozyme fitness (log ratio)” value is no more than -4.2.
Then A28G A37U A39C C149U, with no more than -4.2.
Then A28U U53A C105U A115G A142C U151G G152C, with no more than -4.2.
Turning to A28C G88C, the “polymerase ribozyme fitness (log ratio)” value was no more than -4.2.
For A29C G34U U53A C87G C123A G143A U146C, the “polymerase ribozyme fitness (log ratio)” value was no more than -4.2.
As for A28U G59A C69U C93U A97C, the “polymerase ribozyme fitness (log ratio)” value was no more than -4.2.
Consider A28C A52U G86C, for which the “polymerase ribozyme fitness (log ratio)” value is no more than -4.2.
For A28C U53A U144A, the “polymerase ribozyme fitness (log ratio)” value is no more than -4.2.
On to A28U A40U A49C G68U U90G C96U A107G A110C, for which the “polymerase ribozyme fitness (log ratio)” value is no more than -4.2.
As for A28U A41C G92C, the “polymerase ribozyme fitness (log ratio)” value is no more than -4.2.
With A28G A29U, the “polymerase ribozyme fitness (log ratio)” value was -3.79.
